Screen size: about 310,000 compounds; about 2,200 (0.71%) showed an effect of 50% or more. Effects have a minus sign here. Some of the results follow.
Biological target: human ether-à-go-go-related gene (hERG) potassium channel (human, UniProt Q12809)
Assay: primary screen, population patch clamp on CHO cells stably expressing hERG

human ether-à-go-go-related gene (hERG) potassium channel, sequence (Q12809 whole entry, looked up): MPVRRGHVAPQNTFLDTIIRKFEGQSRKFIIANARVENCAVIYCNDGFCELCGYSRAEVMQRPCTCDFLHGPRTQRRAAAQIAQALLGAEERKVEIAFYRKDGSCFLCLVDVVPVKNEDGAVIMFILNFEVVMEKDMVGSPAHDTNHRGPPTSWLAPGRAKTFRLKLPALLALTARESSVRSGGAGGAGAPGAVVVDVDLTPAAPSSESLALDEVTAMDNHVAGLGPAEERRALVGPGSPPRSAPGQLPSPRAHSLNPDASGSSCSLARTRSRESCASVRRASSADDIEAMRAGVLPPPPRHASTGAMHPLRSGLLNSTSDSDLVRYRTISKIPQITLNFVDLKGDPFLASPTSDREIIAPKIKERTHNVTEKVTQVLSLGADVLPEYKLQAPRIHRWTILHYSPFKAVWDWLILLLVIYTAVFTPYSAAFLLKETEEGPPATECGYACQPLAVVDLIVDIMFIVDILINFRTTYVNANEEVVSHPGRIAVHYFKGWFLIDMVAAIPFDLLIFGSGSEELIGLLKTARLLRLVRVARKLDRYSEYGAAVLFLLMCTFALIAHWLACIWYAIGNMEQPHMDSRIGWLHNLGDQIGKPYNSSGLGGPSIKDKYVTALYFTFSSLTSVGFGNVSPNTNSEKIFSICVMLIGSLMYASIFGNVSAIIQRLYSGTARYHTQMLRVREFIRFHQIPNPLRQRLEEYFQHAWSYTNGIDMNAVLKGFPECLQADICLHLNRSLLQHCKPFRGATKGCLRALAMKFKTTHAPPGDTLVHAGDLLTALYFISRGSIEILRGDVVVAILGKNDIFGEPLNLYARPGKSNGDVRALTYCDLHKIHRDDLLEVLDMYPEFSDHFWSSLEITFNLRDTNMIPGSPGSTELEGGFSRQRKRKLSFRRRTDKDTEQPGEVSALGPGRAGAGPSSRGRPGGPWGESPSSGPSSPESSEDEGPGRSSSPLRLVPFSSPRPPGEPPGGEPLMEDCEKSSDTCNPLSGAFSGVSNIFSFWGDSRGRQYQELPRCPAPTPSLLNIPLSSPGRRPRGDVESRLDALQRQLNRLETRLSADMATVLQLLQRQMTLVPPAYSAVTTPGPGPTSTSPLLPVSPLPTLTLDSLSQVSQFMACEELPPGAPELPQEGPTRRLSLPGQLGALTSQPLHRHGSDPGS

Compound | hERG current change (%, negative = inhibition) at 1uM
CCCC(=O)C1=C(N(C)c2ccccc2)CC(C)(C)C(C(=O)OC)C1=O (stereo not drawn) | 4.75%
Cc1cc(C)cc(NC(=O)COc2ccc(C(=S)N3CCOCC3)cc2)c1 | 1.9%
O=C(Cc1ccc(F)cc1)N/N=C/c1ccncc1 | 4.01%
COc1ccc(S(=O)(=O)NCCc2ccco2)cc1OC | 7.85%
CCc1cc(Cn2nc(-c3ccccc3)cc2C(=O)NCc2ccccc2OC)on1 | 6.59%
CC(=O)Nc1cccc(NC(=O)CS(=O)(=O)c2cn(CC(=O)N3CCCC3)c3ccccc23)c1 | 10.2%
COc1ccc(C(=O)OCn2nnc3ccccc3c2=O)cc1 | 14.7%
CCNC(=O)c1sc(=S)n(-c2ccc(C)cc2)c1N | 3.75%
Cc1cc(Cl)ccc1N(CC(=O)NCCSCc1ccco1)S(C)(=O)=O | 13.8%
O=S(=O)(Nc1ccc(N2CCCCC2)cc1)c1ccccc1F | 12.2%
Cn1cc(CNC(=O)C2CCC(=O)N(Cc3ccccc3F)C2)cn1 (stereo not drawn) | 14.8%
O=c1ccc(-c2ccc(S(=O)(=O)Nc3cccc(F)c3)o2)n[nH]1 | -7.68%
Cc1onc(-c2c(Cl)cccc2Cl)c1C(=O)O/N=C(\C#N)c1ccccc1 | 7.14%
Cn1c(/N=C/c2ccccc2[N+](=O)[O-])nc2ccccc21 | 11.6%
O=C(NCCCCCCNC(=O)c1cccs1)c1cccs1 | 13.4%
CCOC(=O)C1(Cc2ccccc2C(F)(F)F)CCN(Cc2ccc(COC)o2)CC1 | 10.1%
COc1cc2c(cc1OC)CN(c1ncccc1[N+](=O)[O-])CC2 | 5.11%
O=C(COC(=O)CCN=C1NS(=O)(=O)c2ccccc21)NC1CCCCCCC1 | 3.08%
CC(C)c1nc2c(s1)CCc1onc(-c3cccc([N+](=O)[O-])c3)c1-2 | 13.4%
COC(=O)CSc1nc(-c2ccc(C)cc2)c2c(c1C#N)CCCC2 | 9.7%
Cn1cnc2c(=O)sc3ccccc3c21 | 17.6%
O=C(OCCN1C(=O)c2ccccc2C1=O)Oc1ccccc1 | 6.69%

Compound | hERG current change (%, negative = inhibition) at 1uM
Cc1cc(S(=O)(=O)N2CCCCC2)ccc1OCC(=O)N1CCCC1 | -5.99%
N/C(=N\OC(=O)c1ccc2ccccc2c1)c1ccc(Br)cc1 | 10.4%
CC(=O)NCCNC(=O)c1cc(-c2cccc3ccccc23)nc2ccccc12 | 9.77%
Cc1cc(NC(=O)COC(=O)C2CC(=O)N(c3cccc(Cl)c3)C2)no1 (stereo not drawn) | 9.09%
C/C(=N\NC(N)=S)c1ccc(-n2ccnc2)cc1 | 5.18%
CCCCN(C(=O)Cc1ccc(S(=O)(=O)N2CCOCC2)s1)c1c(N)n(CCCC)c(=O)[nH]c1=O | 10.1%
CN(C)c1ccc(N2C(=NC(=O)COc3ccccc3)SC3CS(=O)(=O)CC32)cc1 (stereo not drawn) | 12.2%
O=C(CNC(=O)C12CC3CC(CC(C3)C1)C2)NCc1ccccc1 | 0.744%
COc1cccc(CC2(CO)CCCN(Cc3ccc(C)s3)C2)c1 (stereo not drawn) | -10.6%
Cn1cc(C=O)c(-c2ccc3c(c2)OCCCO3)n1 | 17.3%
CC(=O)N1c2ccc(S(=O)(=O)N3CCCC(C(=O)N4CCCCC4)C3)cc2CC1C (stereo not drawn) | 16.2%
CC(C)Cn1c(SC(C)C(=O)NCC2CCCO2)nc2ccc(Cl)cc2c1=O (stereo not drawn) | 12%
CCC(=O)n1nc(-c2ccc(Cl)cc2)nc1NCc1ccccc1 | 8.9%
CC(=O)Nc1ccc(N2C(=O)CC(N3CCSCC3)C2=O)cc1 (stereo not drawn) | 1.19%
O=C(CCc1ccccc1)Nc1ccc(N2CCCCC2)cc1 | 12.4%
O=C(NCc1cccs1)C1CCN(S(=O)(=O)c2ccc(Br)s2)CC1 | 3.18%
CCC(CC)C(=O)c1c[nH]c(C(=O)NCCCN2CCOCC2)c1 | 8.9%
O=S(=O)(Nc1ccc(-c2nc3ccccc3o2)cc1)c1ccccc1 | 9.32%
CC(C)NC(=O)C1CCN(C2CCN(C(=O)c3ccc4cccc(F)c4n3)CC2)CC1 | 14.2%
Cc1cc(C)cc(CC2CC(=O)N(c3cc(C)ccc3C)C2=O)c1 (stereo not drawn) | 10.2%
CCC(Oc1ccccc1)C(=O)O/N=C(\N)c1ccc(OC)c(OC)c1 (stereo not drawn) | 10.8%
CCOc1ccc(N(CC(=O)Nc2ccc(OC)cc2OC)S(=O)(=O)c2c(C)[nH]c(=O)[nH]c2=O)cc1 | 6.02%

Compound | hERG current change (%, negative = inhibition) at 1uM
CCc1ccccc1N(CC(=O)N1CCCCCC1)S(C)(=O)=O | 15.8%
O=C(N/N=C/c1sc(N2CCOCC2)nc1-c1ccccc1)c1ccccc1F | 14.7%
CCOc1ccc(S(=O)(=O)N2CCCC(C(=O)NCc3ccncc3)C2)cc1 (stereo not drawn) | 7.96%
COc1cc(OC)cc(C(=O)NCC2CCCN(C(=O)c3oc(C)cc3C)C2)c1 (stereo not drawn) | -3.71%
COc1ccc(N2CCN(C(=O)c3cn(C)c4ccc(S(=O)(=O)N5CCOCC5)cc4c3=O)CC2)cc1 | 7.26%
O=C(C1CCCO1)N1CCN(C(=S)Nc2ccc(Cl)cc2Cl)CC1 (stereo not drawn) | -0.516%
CC(=O)N1CCN(C(=O)c2cccc(S(=O)(=O)N3CCN(c4ccccc4)CC3)c2)CC1 | 2.17%
O=c1[nH]nc(-c2ccc(F)cc2)cc1-c1ccccc1 | 16.1%
CCc1cc(=O)oc2c(C)c(O[C@@H]3O[C@H](CO)[C@@H](O)[C@H](O)[C@H]3O)ccc12 | 7.2%
CCOc1ccc(/C(O)=C2/C(=O)C(=O)N(c3ccccn3)C2c2ccc(C)cc2)c(C)c1 (stereo not drawn) | 12.8%
O=C(c1cccs1)N1CCN(c2ncc(C(F)(F)F)cc2Cl)CC1 | -0.834%
Cc1ccccc1N1CCN(C(=O)NCc2cccc(Cl)c2)CC1 | 12.5%
O=C(CCNC(=O)c1ccc([N+](=O)[O-])cc1)NCCC1=CCCCC1 | -5.82%
Cc1cc2nc(C)c(Cc3ccccc3)c(=O)n2[nH]1 | 11.9%
C(=C\c1ccccc1)/CSc1nnc(-c2cccnc2)n1Cc1ccco1 | -51.9%
CC1(C)C(=O)C2(CCCCC2)C(=O)OC1C(=O)c1ccccc1 (stereo not drawn) | 6.81%
COc1ccc(C)cc1NC(=O)CCN1CCN(C/C=C/c2ccccc2)CC1 | -70.9%
CCN(CC(=O)Nc1cccc(OC)c1)CC(=O)Nc1cccc2ccccc12 | 6.3%
CCCc1nnc(NC(=O)NCCN2C(=O)C3C4C=CC(C4)C3C2=O)s1 (stereo not drawn) | 12.4%
COc1cc(NC(=O)c2ccc(C)c([N+](=O)[O-])c2)ccc1NC(=O)c1ccco1 | 12.2%
Nc1ccn([C@H]2C[C@H](O)[C@@H](CO)O2)c(=O)n1.O | 2.7%
Cc1ccc(CN2CCCN(Cc3c(C)cc(C)cc3C)S2(=O)=O)cc1 | 21.5%

Compound | hERG current change (%, negative = inhibition) at 1uM
Clc1ccc2c(c1)C(N1CCNCC1)=Nc1ccccc1O2 | 18.4%
CC(=O)N1N=C(c2ccc(NS(=O)(=O)c3ccccc3)cc2)CC1c1ccco1 (stereo not drawn) | 2.54%
NC(=O)c1[nH]cnc1N | 10.9%
CN(Cc1c(F)cccc1Cl)S(=O)(=O)c1cccs1 | -11.5%
CN(Cc1nc2ccccc2n1C)S(C)(=O)=O | 7.57%
Cc1cc(C)nc(NC(=NCCc2c[nH]c3ccccc23)NC(=O)C(C)(C)C)n1 | 11.2%
CC(=O)SCCC(=O)N1C(C)CCCC1C(=O)O (stereo not drawn) | 9.54%
CCCCN(C(=O)COC(=O)c1nc2nccc(C)n2n1)C1CCS(=O)(=O)C1 (stereo not drawn) | 0.573%
Cc1ccccc1C(=O)NCC(=O)NNC(=S)NC(=O)c1ccccc1 | 7.16%
CC(=O)Nc1ccc(NC(=O)CSc2ccc(-c3ccc4c(c3)OCO4)nn2)cc1 | 6.56%
O=C(COC(=O)c1cnccn1)c1ccc2c(c1)CCCC2 | 0.937%
C=CCn1c(SCc2nc(N)nc(N(C)C)n2)nnc1-c1cccnc1 | 12.9%
COc1ccc(Oc2cccc(Cl)c2CNC(=O)CC(C)(C)CC(=O)O)cc1 | -6.32%
CCCCS(=O)CC(O)COc1ccc(C(C)(C)C)cc1 (stereo not drawn) | -0.243%
CCCn1nnnc1NC(=O)c1cc(Br)ccc1OC | -0.0117%
O=C(CSc1nnc(NC(=O)c2cccc(Br)c2)s1)NCC1CCCO1 (stereo not drawn) | 18.2%
CC1(c2nnc(-c3ccc(Cl)cc3)o2)CC(c2c(Cl)cccc2Cl)=NO1 (stereo not drawn) | 5.03%
Cn1c(=O)c2c(nc(N3CCN(Cc4ccccc4)CC3)n2CCCc2ccccc2)n(C)c1=O | -9.73%
CSc1ncccc1C(=O)NCCc1ccc(S(N)(=O)=O)cc1 | 14.5%
O=C1[C@H]2[C@@H](c3ccc(F)cc3)N3C(=O)N(c4ccccc4)C(=O)[C@@]3(Cc3ccccc3)[C@H]2C(=O)N1C1CCCCC1 | 14.4%
CC(C)C(NS(=O)(=O)/C=C/c1ccccc1)C(=O)NCc1ccc(F)cc1 (stereo not drawn) | 20.6%
